Assay results: the supplement of paper PMC10369915
Some of the results follow. Rule as the data show it: active = 3.2 or more and inactive = the rest. Only a few entries rise above the background.

The binders below were run against SHP2 C-SH2 domain E139D (assay: enrichment score (SH2-bound / input frequency) (ratio); bacterial display of known human phosphotyrosine sites (pTyr-Var adds point mutants) read by sequencing; higher = stronger binding; tyrosines were phosphorylated by kinases first). Conditions: peptide library: pTyr-Var.
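Also: displayed peptides selected on beads carrying the immobilized SH2 domain, with library peptides lacking any tyrosine serving as negative controls.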

Enrichment score, inactive:
ATHSGYRLNDF [CLDN14_Y233_YF] 1.07, MIRSAYALRGL [CPS1_Y590_G593R] 0.724, EKIANYKEGTF [CLRN1_Y171_YF] 0.845, DKWFLYKMRDI [CPS1_Y879] 0.532, KVPAIYGVGTR [CPS1_Y162_D165G] 0.756, WKEREYEVVRD [CPS1_Y634_I632R] 0.886, HGDDDYDDPEL [CLNK_Y69_S65G] 0.386, MCDSHYLESRF [CLK1_Y56_S61F] 0.982, AKAEICEMRPL [COX10_Y97_Y97C] 0.682

The binders below were run against SHP2 C-SH2 domain wild-type in the same assay as above. Conditions: peptide library: pTyr-Var.

Enrichment score, inactive:
ATHSGYRLNDF [CLDN14_Y233_YF] 0.764, MIRSAYALRGL [CPS1_Y590_G593R] 0.683, EKIANYKEGTF [CLRN1_Y171_YF] 0.776, DKWFLYKMRDI [CPS1_Y879] 0.631, KVPAIYGVGTR [CPS1_Y162_D165G] 0.716, WKEREYEVVRD [CPS1_Y634_I632R] 0.913, HGDDDYDDPEL [CLNK_Y69_S65G] 0.364, MCDSHYLESRF [CLK1_Y56_S61F] 0.886, AKAEICEMRPL [COX10_Y97_Y97C] 0.577

These binders were tested against SHP2 N-SH2 domain L43F in the same assay as above. Conditions: peptide library: pTyr-Var.

Enrichment score, inactive:
ATHSGYRLNDF [CLDN14_Y233_YF] 0.77, MIRSAYALRGL [CPS1_Y590_G593R] 0.613, EKIANYKEGTF [CLRN1_Y171_YF] 0.628, DKWFLYKMRDI [CPS1_Y879] 0.575, KVPAIYGVGTR [CPS1_Y162_D165G] 0.706, WKEREYEVVRD [CPS1_Y634_I632R] 0.771, HGDDDYDDPEL [CLNK_Y69_S65G] 0.322, MCDSHYLESRF [CLK1_Y56_S61F] 0.877, AKAEICEMRPL [COX10_Y97_Y97C] 0.613

What follows are binders tested against SHP2 N-SH2 domain T42A in the same assay as above. Conditions: peptide library: pTyr-Var.

Enrichment score, inactive:
ATHSGYRLNDF [CLDN14_Y233_YF] 0.707, MIRSAYALRGL [CPS1_Y590_G593R] 0.513, EKIANYKEGTF [CLRN1_Y171_YF] 0.567, DKWFLYKMRDI [CPS1_Y879] 0.574, KVPAIYGVGTR [CPS1_Y162_D165G] 0.747, WKEREYEVVRD [CPS1_Y634_I632R] 0.846, HGDDDYDDPEL [CLNK_Y69_S65G] 0.44, MCDSHYLESRF [CLK1_Y56_S61F] 0.89, AKAEICEMRPL [COX10_Y97_Y97C] 0.68

Each binder was assayed against SHP2 N-SH2 domain T52S in the same assay as above. Conditions: peptide library: pTyr-Var.

Enrichment score, inactive:
ATHSGYRLNDF [CLDN14_Y233_YF] 0.718, MIRSAYALRGL [CPS1_Y590_G593R] 0.62, EKIANYKEGTF [CLRN1_Y171_YF] 0.698, DKWFLYKMRDI [CPS1_Y879] 0.493, KVPAIYGVGTR [CPS1_Y162_D165G] 0.72, WKEREYEVVRD [CPS1_Y634_I632R] 0.749, HGDDDYDDPEL [CLNK_Y69_S65G] 0.389, MCDSHYLESRF [CLK1_Y56_S61F] 0.82, AKAEICEMRPL [COX10_Y97_Y97C] 0.623

These binders were tested against SHP2 N-SH2 domain wild-type in the same assay as above. Conditions: peptide library: pTyr-Var.

Enrichment score, inactive:
ATHSGYRLNDF [CLDN14_Y233_YF] 0.701, MIRSAYALRGL [CPS1_Y590_G593R] 0.593, EKIANYKEGTF [CLRN1_Y171_YF] 0.683, DKWFLYKMRDI [CPS1_Y879] 0.772, KVPAIYGVGTR [CPS1_Y162_D165G] 0.835, WKEREYEVVRD [CPS1_Y634_I632R] 0.647, HGDDDYDDPEL [CLNK_Y69_S65G] 0.434, MCDSHYLESRF [CLK1_Y56_S61F] 0.928, AKAEICEMRPL [COX10_Y97_Y97C] 0.919
